# Measured values taken from the supplement of paper PMC3334620.
# The full ranking holds about 33,000 sequences; the median of “E-score (-0.5 to 0.5)” is about -0.053, and the highest 2% start at about 0.37. The list shows a part of the results.
# Molecular target: Hap1 (UniProt P0CE41)
# Assay: PBM E-score (8-mer binding enrichment) (E-score (-0.5 to 0.5)); higher = stronger / more preferred TF binding; most listed sequences are background and not binding sites
# Details: protein concentration: 200 nM; construct: GST-DNA-binding domain
# Protocol: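 Universal 'all 10-mer' protein binding microarrays (Agilent AMADID 015681) probed with GST-tagged S. cerevisiae TFs (full-length or DBD) made by in vitro transcription/translation (PURExpress), about 100-200 nM. Bound TF was detected with fluorescent anti-GST. Each ungapped 8-mer (which stands for itself and its reverse complement) is scored by the PBM enrichment score (E-score), a modified Wilcoxon-Mann-Whitney statistic from -0.5 to +0.5, computed with the Universal PBM Analysis Suite. Scale: above 0.35 generally sequence-specific binding.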
# Sequence of UniProt P0CE41 (P0CE41 whole entry): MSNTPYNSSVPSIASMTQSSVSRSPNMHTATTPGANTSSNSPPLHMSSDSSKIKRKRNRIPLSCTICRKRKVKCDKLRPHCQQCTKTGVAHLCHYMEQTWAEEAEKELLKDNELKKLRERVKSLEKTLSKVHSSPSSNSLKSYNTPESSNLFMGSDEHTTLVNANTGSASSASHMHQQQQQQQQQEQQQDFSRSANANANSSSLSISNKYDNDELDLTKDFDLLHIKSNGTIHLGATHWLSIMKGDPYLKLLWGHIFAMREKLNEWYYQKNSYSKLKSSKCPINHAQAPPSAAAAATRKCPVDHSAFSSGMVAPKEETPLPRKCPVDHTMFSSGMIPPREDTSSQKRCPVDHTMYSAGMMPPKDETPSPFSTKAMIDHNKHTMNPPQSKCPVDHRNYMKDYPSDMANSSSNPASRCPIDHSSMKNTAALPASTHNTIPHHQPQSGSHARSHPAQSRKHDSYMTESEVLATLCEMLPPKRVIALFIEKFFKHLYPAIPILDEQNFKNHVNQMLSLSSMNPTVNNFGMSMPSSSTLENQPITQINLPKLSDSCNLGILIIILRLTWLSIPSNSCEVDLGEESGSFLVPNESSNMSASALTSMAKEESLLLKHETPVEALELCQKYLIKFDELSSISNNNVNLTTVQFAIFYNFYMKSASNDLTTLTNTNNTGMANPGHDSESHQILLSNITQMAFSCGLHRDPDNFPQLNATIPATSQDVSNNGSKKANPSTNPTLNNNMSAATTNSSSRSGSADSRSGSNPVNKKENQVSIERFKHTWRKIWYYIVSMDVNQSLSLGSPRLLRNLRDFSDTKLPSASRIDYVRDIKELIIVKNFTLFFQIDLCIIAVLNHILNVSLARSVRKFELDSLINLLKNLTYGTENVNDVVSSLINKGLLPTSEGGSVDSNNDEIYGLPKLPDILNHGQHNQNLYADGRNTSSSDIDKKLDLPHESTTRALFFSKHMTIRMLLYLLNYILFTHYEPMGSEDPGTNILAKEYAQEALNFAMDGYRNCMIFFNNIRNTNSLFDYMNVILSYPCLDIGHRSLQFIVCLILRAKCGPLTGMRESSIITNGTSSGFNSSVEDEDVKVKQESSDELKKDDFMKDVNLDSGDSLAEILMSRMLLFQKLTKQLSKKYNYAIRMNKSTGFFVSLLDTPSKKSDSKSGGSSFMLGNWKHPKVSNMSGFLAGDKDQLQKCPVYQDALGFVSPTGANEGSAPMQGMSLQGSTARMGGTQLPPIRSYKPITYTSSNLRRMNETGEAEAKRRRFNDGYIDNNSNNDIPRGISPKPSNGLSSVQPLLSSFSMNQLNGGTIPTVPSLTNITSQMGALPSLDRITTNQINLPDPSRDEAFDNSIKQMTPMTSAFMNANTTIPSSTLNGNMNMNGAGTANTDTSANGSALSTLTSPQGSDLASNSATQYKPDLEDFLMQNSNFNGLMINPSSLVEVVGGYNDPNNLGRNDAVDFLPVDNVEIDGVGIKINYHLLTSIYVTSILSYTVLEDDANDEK
row,Sequence,PBM E-score
1,ATTTGAAC,0.128
2,ACACTGAC,-0.0473
3,CCCGCCAC,-0.00132
4,AAAGGGCG,-0.0369
5,TACGCCAA,-0.242
6,CGATACAC,0.104
7,CTTCGTCA,-0.234
8,CGCCGAGA,0.37
9,AATATATG,0.0844
10,AGTACTCC,0.061
11,CGTCAGCA,-0.115
12,ACACGGGC,0.206
13,AATTTTCT,-0.0201
14,AACAGTCT,-0.305
15,GATCTAAC,-0.0293
16,CAATTATA,-0.201
17,CGCCTTTA,0.0888
18,CGGTAGTA,0.206
19,CCAGTCTA,-0.174
20,GCTTGTGA,-0.252
21,GCTGCCTA,-0.086
22,ACGGGTGC,0.0022
23,AAATCTAC,0.0453
24,CACCTATG,0.0289
25,ACCTGTCA,-0.0953

row,Sequence,PBM E-score
1,GCGTGCTA,-0.285
2,ATAGATGG,-0.212
3,CTGCTCTA,-0.205
4,CATGTTCC,-0.0353
5,ACACCTAG,-0.169
6,CGGCACGA,0.0969
7,GATCTCTA,-0.212
8,CCTTCGAC,-0.318
9,CACGCTGC,-0.0969
10,ACTTAACG,0.0345
11,CAAGAGGC,-0.198
12,AGGTCCAC,-0.105
13,AAAGCGGT,0.0284
14,ATGTTCGC,-0.044
15,CAGTGTTC,-0.0181
16,AAATCTGT,-0.0739
17,AAAATAGT,-0.161
18,ATCTCGTC,0.0634
19,CCACTGCG,-0.0793
20,AGCCCAAG,-0.158
21,GAGCGGCC,0.139
22,ACAAGCGA,0.0693
23,CCTGATAC,-0.0985
24,CCCACAAA,-0.103
25,CTTACGGA,0.278

row,Sequence,PBM E-score
1,CGGAGAAG,0.378
2,AAATAGTG,-0.0937
3,AGTAAGAT,-0.0935
4,CTCCTGGC,0.0023
5,AACTCTCA,-0.326
6,GACTGGAA,-0.0348
7,CAGTGGGA,-0.128
8,CATCAAAC,-0.0945
9,GGGTTGGA,-0.0191
10,GATCTACA,0.00709
11,ACAGACCT,-0.0718
12,AGTACCCG,0.1
13,ACGGTTGA,-0.185
14,AAAATTCA,0.00988
15,CAAAGGTC,-0.148
16,AATCGGAT,0.337
17,CCAGTCGA,-0.121
18,GGGAACGA,-0.00532
19,AGTCTTCG,-0.0554
20,CCCTGTCA,-0.277
21,GGTTGTTA,-0.033
22,CGAACCAG,-0.00442
23,AATGCAAT,-0.372
24,ACCCTGGA,-0.195
25,AGGGCAGA,-0.367

row,Sequence,PBM E-score
1,TCTACCAA,-0.231
2,ATCGAGCG,0.139
3,CATTGCGC,-0.084
4,GGCACCAC,-0.014
5,AATTCCCT,-0.106
6,TAAGTATA,0.16
7,ATAGACCA,-0.129
8,TCCCCAGA,-0.251
9,ATCACCGA,0.417
10,GCGAGTAA,0.0815
11,GTGCACTA,0.00768
12,AAGGAAGG,-0.197
13,GCTGTCAA,-0.115
14,TCAGAACA,-0.14
15,CACTAGTC,-0.0967
16,CCCACGGG,-0.00611
17,ACCAGTGC,-0.229
18,AAGTGAGT,-0.229
19,CGGTAAGA,0.253
20,CAAGCTCC,0.00322
21,AACTGTGC,-0.323
22,ACGCCCAA,-0.133
23,CGGCTGGA,0.184
24,AGTAATAC,0.0132
25,AAAGTAAC,-0.0512

row,Sequence,PBM E-score
1,ACCTCTAG,-0.09
2,AGTGAATA,-0.169
3,GGCGCAAC,0.0767
4,AGGCGCCC,-0.0775
5,CGACAGTA,0.119
6,AACACACC,0.0322
7,ATATTGCC,0.0438
8,ACAAAGTA,-0.153
9,AGTACATC,-0.075
10,AAACACTA,-0.192
11,GTATACCA,-0.165
12,AAAAGGGA,-0.261
13,GACGCGTC,-0.2
14,CGGCTAAA,0.254
15,AAAAAGAT,-0.174
16,CTCCCCGC,0.204
17,AGGAAGTA,0.0541
18,AACATGCG,-0.138
19,CCTAACGA,-0.222
20,ACTAGAAG,-0.0436
21,GTTCCGTA,0.255
22,AGGATGCG,-0.181
23,AGTTTTAC,-0.0465
24,CTTGACCA,-0.35
25,CGCGTTGC,0.159

row,Sequence,PBM E-score
1,ATGGCACC,-0.0283
2,CGGGTGCC,0.227
3,TGTTTGAA,-0.202
4,AGAATTCG,-0.0961
5,GGGGGTCA,-0.0392
6,ACGTGGTG,-0.01
7,GGCCCCGA,0.21
8,GAACCAGA,-0.206
9,AGATAGAG,-0.0872
10,CAAGTTCC,0.124
11,ACGCATCA,-0.125
12,CAGTTGAA,-0.212
13,ACTGTAAC,-0.139
14,AAGTAGCG,-0.129
15,CGGTCAAG,0.238
16,GTAAGAGA,-0.197
17,CTGGGTTC,-0.0233
18,AGGAGACA,-0.119
19,ACCTTTAT,-0.16
20,GCGTACCC,0.0225
21,CAATTCGC,0.14
22,GCATCGGC,0.225
23,GGCGGAGA,0.36
24,GTCTAAGA,-0.105
25,GTAGGTTA,-0.0501

row,Sequence,PBM E-score
1,GTAATGAC,0.0337
2,GTTTTACA,-0.149
3,CTCTATTC,-0.0238
4,ATCCACGC,-0.239
5,CACTGCGA,-0.0992
6,ACGTGCTA,-0.249
7,CTTCTCAA,-0.141
8,CTCGCCGC,0.146
9,CGTAGAGA,-0.291
10,AACCCGAG,0.317
11,CGATATAC,0.332
12,GGTCCCTA,-0.119
13,ACCGGAGA,0.43
14,GCCCTCAA,-0.0889
15,CTGTCGTA,-0.0531
16,CGCGTTGA,-0.0929
17,CCGAAGAC,0.255
18,CTCTAGCC,-0.0745
19,ATCCAGGC,-0.185
20,GGAAGCCC,0.157
21,ATGATCAG,-0.23
22,GAGTATCA,-0.106
